The values that follow come from ChEMBL document CHEMBL4699491, “Identification of TNO155, an Allosteric SHP2 Inhibitor for the Treatment of Cancer” (J Med Chem, 2020).

Each structure is given as a SMILES string. Converted amounts (≈) assume the structure as drawn.

Data set [1] can be described thus: physchem. Particulars: buffer, pH 6.8.
The nature of data set [2]: physchem. Particulars: octanol/water.
Data set [3] in a line: physchem. The following applies: octanol/water. This is another data set of the same source.

The molecule `CC1(N)CCN(c2cnc(Sc3ccccc3Cl)c(N)n2)CC1` showed a solubility in the data set “physchem [1]” of 160 µM (≈ 56 µg/mL). In the data set “physchem [2]”, this molecule came in with a logP of 2.4. In “physchem [3]”, the logD came out at 0.8.
In the case of `CC1(CN)CCN(c2cnc(Sc3cccnc3C(F)(F)F)c(N)n2)CC1`, the solubility in the data set “physchem [1]” came to 304 µM (≈ 121 µg/mL). In the data set “physchem [2]”, the logP amounted to 1. For the same molecule, the logD in “physchem [3]” is -1.6.
As to `CC1(CN)CCN(c2cnc(-c3cccc(Cl)c3Cl)c(N)n2)CC1`, the solubility in “physchem [1]” was 715 µM (≈ 262 µg/mL).
`Nc1nc(N2CCC3(CCC[C@H]3N)CC2)cnc1Sc1cccnc1C(F)(F)F` displayed a solubility in the data set “physchem [1]” of 668 µM (≈ 284 µg/mL). In the data set “physchem [2]”, this molecule returned a logP of 3. In “physchem [3]”, this molecule gave a log distribution coefficient (logD) of 0.3.
In the data set “physchem [1]”, `Nc1nccc(Sc2cnc(N3CCC4(CCC[C@H]4N)CC3)cn2)c1Cl` showed a solubility of 450 µM (≈ 176 µg/mL). The same molecule had a logP in “physchem [2]” of 2.7. For the same molecule, the logD in “physchem [3]” worked out at 1.2.
